From PubChem BioAssay AID686979 (National Center for Advancing Translational Sciences (NCATS), 2013)
The campaign covered roughly 420,000 compounds. About 50,000 (12%) were called active. The inconclusive results got no clear call from the source; some entries with a clear call stand among them for comparison. Calls follow the shape of the dose curve; as a rule, active = well fitted inhibition curve with a large enough effect; inconclusive = small, poorly fitted or top-dose-only effect; inactive = flat fitted curve, though single readings scatter. No potency is given beside an inconclusive call; the fits are too rough.

experiment: qHTS for Inhibitors of human tyrosyl-DNA phosphodiesterase 1 (TDP1): qHTS in cells in presence of CPT; settings: chicken DT40 Tdp1-/-;hTDP1 cells + 20 nM CPT, ATP luminescence, 48 h; activity change, negative = growth inhibition: at 46.2 µM (top of the series) unless noted; also: nearly all actives have a fitted effect of over 55% in size
How it was run: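 Chicken DT40 Tdp1-/- cells complemented with human TDP1, 400 cells/well, exposed to compounds plus 20 nM camptothecin for at least 48 h at 37 C; viability read as ATP content by CellTiter-Glo luminescence.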
% is scaled to controls: 0 for no effect and ±100 for the full control effect; potency is read from the fitted curve at half-maximal effect; tags tell the direction and shape of the fitted curve.

Structure (SMILES) | Potency | activity change, negative = growth inhibition
COc1ccc(N2CCN(C(=O)CCc3ccc(S(=O)(=O)NCC(C)C)cc3)CC2)cc1 | inconclusive [inhibitor, single point] | –
CCOc1ccc(CNC(=S)N/N=C/c2ccc(OC)c(OC)c2)cc1 | – | inactive: -16.6%
C=CCNc1nc(-c2ccccc2)nc(-n2ccnc2)n1 | inconclusive [inhibitor, single point] | –
O=c1c2ccccc2nc(-c2ccc([N+](=O)[O-])cc2)n1O | inconclusive [inhibitor, single point] | –
CCCN(CC(=O)Nc1ccccc1C)C(=O)COc1c(C)cccc1C | inconclusive [inhibitor, single point] | –
O=C(NCCS(=O)(=O)N1CCN(c2ccccc2F)CC1)c1ccc(Cl)cc1 | – | inactive: -1.8%
Cc1ccc(C(=O)N/N=C2\CC3CC=CC23)c(C)c1 (stereo unspecified) | – | inactive: -2.3%
CCN(CC)CCC(c1ccc2c(c1)OCO2)c1c(OC)cc(OC)c2c(-c3ccccc3)cc(=O)oc12 (stereo unspecified) | inconclusive [inhibitor, single point] | –
C#CCCC(=O)c1ccccc1/C=[N+](\[O-])c1ccccc1 | inconclusive [inhibitor, single point] | –
COCCN(CC1CCCN(C2Cc3ccccc3C2)C1)C(=O)c1cccc(C)c1 (stereo unspecified) | inconclusive [inhibitor, partial curve, poor fit] | –
CC(NC(=O)/C=C/c1ccco1)c1nc2ccccc2n1Cc1cccc(Cl)c1 (stereo unspecified) | inconclusive [inhibitor, single point] | –
CCOC(=O)C1=C(NC(=S)NC(=O)c2ccccc2)c2ccccc2CC1(C)CC (stereo unspecified) | – | inactive: -93.1%
Cc1ccc(S(=O)(=O)N2CCN(CC(=O)N(CC(C)C)c3c(N)n(CC(C)C)c(=O)[nH]c3=O)CC2)c(C)c1 | – | inactive: -10.1%
Cc1ccc2[nH]c(=O)c(CN(CCCN3CCOCC3)Cc3nnnn3C3CCCC3)cc2c1 | inconclusive [inhibitor, single point] | –
COc1ccccc1C1CC(c2c(-c3ccccc3)c3cc(Cl)ccc3[nH]c2=O)=NN1S(C)(=O)=O (stereo unspecified) | active: 25.9 µM | –
CCOc1ccc(NC(=S)NN2CCN(C)CC2)cc1 | – | inactive: -4.53%
COc1ccc(C(=O)CC(=O)C(=O)Nc2ccc(C)c(Cl)c2)cc1 | inconclusive [inhibitor, single point] | –
COc1ccc(NC(=O)c2ccc([N+](=O)[O-])cc2[N+](=O)[O-])c(OC)c1 | – | inactive: -21.8%
O=C(NCC1CCN(c2ccc(S(=O)(=O)N3CCOCC3)cc2)CC1)Nc1ccccc1F | inconclusive [inhibitor, single point] | –
COc1ccc2c(c1)c(=O)oc1cc(OC(C(=O)O)c3ccccc3)ccc12 (stereo unspecified) | – | inactive: -7.52%
O=C1/C(=C/c2ccco2)N=C(N2CCCCC2)N1c1ccccc1 | active: 20.6 µM | –
O=C(COC(=O)Cc1ccc(Cl)cc1)Nc1ccc2[nH]c(=O)[nH]c2c1 | – | inactive: -4.74%
O=C(c1cccc(F)c1)N1CCN(C(=O)c2nn3cccnc3c2Cl)CC1 | – | inactive: 9.81%
Cc1ccc(C)c(OCCCC(=O)NC2CCCCC2)c1 | inconclusive [inhibitor, single point] | –

Structure (SMILES) | Potency | activity change, negative = growth inhibition
N#C/C(=C(/O)Cc1cccc2ccccc12)c1nc2ccccc2s1 | inconclusive [inhibitor, partial curve] | –
COc1ccc(OC)c(-c2ccnc(-n3ncc(C(=O)N(C)CCc4ccccn4)c3C)n2)c1 | – | inactive: -9.96% [at 9.04 µM]
Cn1nccc1C(=O)N1CCCC(N2CCN(Cc3ccc4c(c3)OCO4)CC2)C1 (stereo unspecified) | – | inactive: -25.1%
CCOc1ccc(CCNC(=O)CSC(=S)N2CCCC2)cc1OCC | active: 20.6 µM | –
CCCCCC(=O)NC(=S)NC1C2CC3CC(C2)CC1C3 (stereo unspecified) | inconclusive [inhibitor, single point] | –
CCOc1[nH]n(-c2ccccc2)c(=O)c1C=Nc1ccc(F)cc1F | inconclusive [inhibitor, single point] | –
CCOC(=O)Cc1csc(NC(=O)CSc2nnnn2-c2ccc(F)cc2)n1 | inconclusive [inhibitor, single point] | –
O=C(CC(n1cncn1)C(Cl)(Cl)Cl)c1ccc([N+](=O)[O-])cc1 (stereo unspecified) | active: 16.4 µM | –
Cc1sc(N)c(C(=O)c2ccccc2)c1C | inconclusive [inhibitor, single point] | –
CCOC(=O)c1c(S(=O)(=O)N2CCN(c3ccc(F)cc3)CC2)c(C)n(C)c1C | inconclusive [inhibitor, single point] | –
O=C(COc1ccccc1)NCC(=O)N/N=C/c1cc(Br)ccc1OCc1ccccc1 | active: 23.1 µM | –
Cc1ccc(-n2nc(-c3cccs3)cc2C(=O)NCC2CCCO2)c(C)c1 (stereo unspecified) | inconclusive [inhibitor, single point] | –
O=C(Nc1nc2c(F)cc(F)cc2s1)c1ccc([N+](=O)[O-])o1 | active: 14.6 µM | –
Cn1nc(C(F)(F)F)c(-c2ccc(Br)cc2)c1NC(=O)CSCC(=O)O | – | inactive: -0.162%
C#CCN(C[C@H]1[C@H](OC(=O)NC2CC2)[C@H](OC(=O)NC2CC2)C[C@@H](C(=O)OC)[C@H]1C(=O)OC)S(=O)(=O)c1ccc(C)cc1 | – | inactive: -28%
Cc1cc(C)cc(N(CCC#N)C(=O)COC(=O)CNC(=O)c2sc3ccccc3c2Cl)c1 | – | inactive: -11%
O=C(OC(C(=O)NCC1CCCO1)c1ccc(F)cc1)c1cccs1 (stereo unspecified) | – | inactive: -0.99%
CC1Cc2ccccc2N1C(=O)Cn1cnc2c1c(=O)n(C)c(=O)n2C (stereo unspecified) | inconclusive [inhibitor, single point] | –
NC(=O)C(=O)N/N=C/c1ccc([N+](=O)[O-])o1 | active: 10.6 µM | –
FC(F)(F)c1cnc(N2CCN(C(=S)NCc3ccccc3)CC2)c(Cl)c1 | inconclusive [inhibitor, single point] | –
CCC(=O)Nc1sc2c(c1C(N)=O)CCN(C(C)=O)C2 | – | inactive: -1.73%
CCOC(=O)N1CCN(Cc2nc3cc(NC(=O)CC(C)C)ccc3n2CC)CC1 | active: 14.6 µM | –
CCN(CC)C(=O)Cn1c(=O)n(CCCCCC(=O)Nc2ccccc2)c(=O)c2sccc21 | inconclusive [inhibitor, single point] | –
NS(=O)(=O)c1cccc(NC(=O)COC(=O)Cc2n[nH]c(=O)c3ccccc23)c1 | – | inactive: -28.1%

Structure (SMILES) | Potency | activity change, negative = growth inhibition
CCOc1ccc(Cl)cc1-c1cc(C(=O)NCc2cccs2)[nH]n1 | inconclusive [inhibitor, single point] | –
CCOc1ccc(NC(=O)CCc2nnc3ccc(N4CCC(C)CC4)nn23)cc1 | inconclusive [inhibitor, partial curve] | –
COc1ccc(NC(=S)Nc2ccccn2)cc1 | inconclusive [inhibitor, single point] | –
CCCCCCC(=O)N1C/C=C\C(c2ccc(OC)cc2)N(Cc2ccc(F)cc2)C(=O)C1 (stereo unspecified) | inconclusive [inhibitor, single point] | –
COc1ccccc1C(=O)NCC(c1cccs1)N1CCc2ccccc21 (stereo unspecified) | active: 20.6 µM | –
Cc1ccc(CNC(=O)C2CC(c3ccccc3C(F)(F)F)=NO2)o1 (stereo unspecified) | inconclusive [inhibitor, partial curve, poor fit] | –
CC(C)CNC(=O)c1cccc(NC(=O)Cc2ccc(Br)cc2)c1 | inconclusive [inhibitor, partial curve] | –
COc1ccc(Cl)cc1CC1(C)C(=O)Nc2ccc(-c3ccccc3OC)cc21 (stereo unspecified) | active: 20.6 µM | –
Fc1ccc(-c2nc3ccc(Br)cn3c2Cc2ccccc2)cc1 | inconclusive [inhibitor, single point] | –
CC1CCCCN1C(=O)c1ccc(C(=O)c2ccccc2)cc1 (stereo unspecified) | inconclusive [inhibitor, single point] | –
Cc1cccn2c(=O)c3cc(C(=O)NCc4ccccc4)c(=N)n(CCCN4CCOCC4)c3nc12 | inconclusive [inhibitor, single point] | –
COc1ccc2c(c1)OC[C@H]1[C@H]2N2C(=O)CN(CCc3c[nH]c4ccccc34)C(=O)[C@@]2(C)[C@H]1c1ccccc1 | inconclusive [inhibitor, single point] | –
COCCCn1c(SCc2nnc(-c3ccccc3)o2)nc2sc3c(c2c1=O)CCC3 | inconclusive [inhibitor, single point] | –
Cn1c(=O)c(-c2cc(F)cc(F)c2)nc2cnc(N3CCNCC3)nc21 | inconclusive [inhibitor, single point] | –
COc1c(N2CCN(C(=S)NC3CC4CCC3C4)C(C)C2)c(F)cc2c(=O)c(C(=O)O)cn(C3CC3)c12 (stereo unspecified) | active: 23.1 µM | –
O=C(NCc1ccccc1F)c1cc2ccccn2n1 | – | inactive: -17%
Cc1cccc(-n2ncc3c(NCc4cccnc4)ncnc32)c1 | inconclusive [inhibitor, single point] | –
COCCn1c(CN2CCN(C)CC2)nc2c1c(=O)n(C)c(=O)n2C | – | inactive: 3.59%
Cc1ccc(C(=O)Nc2ccc(Br)c(C(F)(F)F)c2)cc1 | inconclusive [inhibitor, single point] | –
CSCCC(NC(=O)c1ccc(Cl)cc1Cl)C(=O)NNC(=O)c1ccncc1 (stereo unspecified) | – | inactive: -8.07%
O=[N+]([O-])c1cccc2c[nH]nc12 | inconclusive [inhibitor, single point] | –
C/C=C/c1ccc(OCC(=O)Nc2ccc(OC)c(OC)c2)c(OC)c1 | active: 16.4 µM | –
CNc1nc(SCC(=O)Nc2ccc(Cl)c(Cl)c2)nc(N2CCOCC2)n1 | inconclusive [inhibitor, single point] | –
